Screen size: about 350,000 compounds; about 31,000 (8.9%) were called active. Inconclusive means that the source gave no clear call. Such entries were picked first, then a sample of the others. Calls follow the shape of the dose curve; as a rule, active = well fitted inhibition curve with a large enough effect; inconclusive = small, poorly fitted or top-dose-only effect; inactive = no such curve, though single readings can be large or run the other way. A potency beside an inconclusive call is a rough fit, not a confirmed value.
target: Histone-lysine N-methyltransferase EHMT2 (Homo sapiens) (UniProt Q96KQ7); assay: qHTS Assay for Inhibitors of Histone Lysine Methyltransferase G9a; settings: G9a H3K9 monomethylation, AlphaScreen, 2 h; activity, negative = inhibition: at 59 µM (top of the series) unless noted; also: nearly all actives have a fitted effect of over 75% in size
Summary of the method: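 AlphaScreen detection with an anti-monomethyl H3K9 antibody quantified product after a 2 h room-temperature reaction containing 500 nM biotinylated H3K9 peptide, 20 µM SAM and 20 nM enzyme, which had been preincubated 15 min with compound.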
% is scaled to controls: 0 for no effect and ±100 for the full control effect; potency is read from the fitted curve at half-maximal effect; tags tell the direction and shape of the fitted curve.

UniProt Q96KQ7, sequence (Q96KQ7 whole entry, looked up): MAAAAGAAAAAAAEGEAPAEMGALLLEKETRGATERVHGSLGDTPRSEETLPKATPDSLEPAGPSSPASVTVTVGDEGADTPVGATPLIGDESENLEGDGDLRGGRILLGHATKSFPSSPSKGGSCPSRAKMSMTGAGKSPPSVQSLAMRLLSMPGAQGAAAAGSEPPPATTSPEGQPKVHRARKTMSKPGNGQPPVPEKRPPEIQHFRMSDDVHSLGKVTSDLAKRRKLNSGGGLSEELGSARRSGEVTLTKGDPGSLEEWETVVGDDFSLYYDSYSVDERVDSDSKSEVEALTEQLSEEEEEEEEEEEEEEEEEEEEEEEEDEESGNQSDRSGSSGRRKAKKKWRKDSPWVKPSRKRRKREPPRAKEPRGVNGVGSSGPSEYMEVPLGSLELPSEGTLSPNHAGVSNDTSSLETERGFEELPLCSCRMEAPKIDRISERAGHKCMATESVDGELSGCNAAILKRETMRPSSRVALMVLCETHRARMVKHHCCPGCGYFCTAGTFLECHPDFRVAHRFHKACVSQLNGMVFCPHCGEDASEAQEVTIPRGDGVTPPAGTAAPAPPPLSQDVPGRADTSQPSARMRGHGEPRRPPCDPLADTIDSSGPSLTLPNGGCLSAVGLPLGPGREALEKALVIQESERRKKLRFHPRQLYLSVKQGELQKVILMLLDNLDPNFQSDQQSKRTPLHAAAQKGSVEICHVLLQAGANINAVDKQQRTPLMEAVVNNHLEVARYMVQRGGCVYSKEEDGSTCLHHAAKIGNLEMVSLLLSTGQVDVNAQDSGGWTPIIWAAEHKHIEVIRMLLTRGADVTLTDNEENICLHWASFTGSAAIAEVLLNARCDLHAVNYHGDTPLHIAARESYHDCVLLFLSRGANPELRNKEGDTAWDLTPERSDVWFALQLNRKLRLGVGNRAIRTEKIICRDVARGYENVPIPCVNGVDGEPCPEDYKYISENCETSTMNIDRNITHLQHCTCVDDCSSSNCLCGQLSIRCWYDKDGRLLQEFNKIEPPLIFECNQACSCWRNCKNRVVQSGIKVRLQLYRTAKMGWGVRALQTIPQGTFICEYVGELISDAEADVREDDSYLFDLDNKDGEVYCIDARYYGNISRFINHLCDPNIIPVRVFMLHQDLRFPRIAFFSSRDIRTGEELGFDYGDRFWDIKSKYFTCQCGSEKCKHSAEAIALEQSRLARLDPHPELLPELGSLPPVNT

SMILES	Potency	activity, negative = inhibition
Cn1c(C(=O)Nc2ccc3c(c2)OCO3)cc2c(=O)n(C)c3ccccc3c21	inconclusive: 39.8 µM [inhibitor, partial curve, poor fit]	
CCOc1ccc(N(CC(=O)Nc2cccnc2)S(=O)(=O)c2ccc(C)cc2)cc1	inconclusive: 0.631 µM [inhibitor, full curve]	
NC(=O)c1c(NC(NC(=O)c2ccco2)C(=O)c2ccc(Cl)cc2)sc2c1CCCC2 (stereo unspecified)	active: 25.1 µM	
COc1ccc(C(N)CCc2ccco2)cc1 (stereo unspecified)	inconclusive: 56.2 µM [inhibitor, partial curve, poor fit]	
CN(CC(=O)NCc1ccccc1)S(=O)(=O)c1ccc2[nH]c3c(c2c1)CCCC3	inconclusive: 31.6 µM [inhibitor, single point]	
CCN(CC)C(=O)C1CCCN(c2ccc([N+](=O)[O-])cc2/C=N/NC(=O)c2ccccc2)C1 (stereo unspecified)	inconclusive: 89.1 µM [inhibitor, single point]	
CCN1CCN(C(=O)/C=C/c2ccc(C)o2)CC1	active: 10 µM	
Cc1cc(C)c(S(=O)(=O)Nc2ccc(-c3ccc(N4CCCCCC4)nn3)cc2)c(C)c1		inactive: -7.11%
O=C(Nc1ccncc1)c1cc(S(=O)(=O)N2CCCCC2)ccc1Cl	inconclusive: 100 µM [inhibitor, single point]	
COc1ccc(-c2cn3nc(N4CCCC(C(=O)Nc5cc(C)cc(C)c5)C4)sc3n2)cc1 (stereo unspecified)	inconclusive: 31.6 µM [inhibitor, partial curve, poor fit]	
Cc1ccc(C2=NC3(CCCC3)N=C2SCC(=O)Nc2ccc3c(c2)OCCO3)cc1	inconclusive: 89.1 µM [inhibitor, single point]	
CCN(Cc1ccccc1)S(=O)(=O)c1cc(C(=O)Nc2cc(Cl)cc(Cl)c2)ccc1F		inactive: 12.1%
CCC(=O)N1c2ccccc2[C@@H](N(C(C)=O)c2ccccc2)C[C@H]1C		inactive: -1.83% [at 12.7 µM]
CC(=O)c1c(C)[nH]c(C(=O)Nc2nccs2)c1C		inactive: 8.14% [at 102 µM]
C[C@H](NC(=O)c1ccc(Br)cc1)C(=O)NCc1ccc(S(N)(=O)=O)cc1	inconclusive: 79.4 µM [inhibitor, partial curve]	
Nc1cc(=O)[nH]c(SCC(=O)c2ccc(F)cc2)n1		inactive: -10.3% [at 102 µM]
O=C1/C(=C/c2ccc(F)cc2)SC(=S)N1CCCC(=O)N1CCCCC1CCO (stereo unspecified)	inconclusive: 50.1 µM [inhibitor, partial curve, poor fit]	
O=C(O)C1Nc2ccc(Br)cc2C2C=CCC12 (stereo unspecified)	active: 1.78 µM	

SMILES	Potency	activity, negative = inhibition
CN1CCc2nc3sc(C(=O)C45CC6CC(CC(C6)C4)C5)c(N)c3cc2C1	active: 2.24 µM	
Cc1cc(NC(=O)c2ccc(C)c(C)c2)no1		inactive: -6.9% [at 0.501 µM]
Oc1ccc(N=Nc2cccc(C(F)(F)F)c2)cc1C=Nc1ccc(N2CCOCC2)cc1	inconclusive: 2.24 µM [inhibitor, partial curve, poor fit]	
CC(C)(C)OC(=O)N1CCC(c2c(C(=O)NCCc3ccccc3)cnn2-c2ccc(F)cc2)CC1	inconclusive: 25.1 µM [inhibitor, partial curve, poor fit]	
CCc1ccc(N2C(=O)c3sc4nnc(-c5ccccc5)c(=O)n4c3C2=O)cc1		inconclusive: -102% [inhibitor]
Cc1ccc(CN(C)C(=O)CN2C(=O)NC3(CCCC3)C2=O)o1	inconclusive: 3.98 µM [inhibitor, single point]	
CCCCN(C(=O)Cc1ccc(S(=O)(=O)N2CCOCC2)s1)c1c(N)n(CCCC)c(=O)[nH]c1=O	active: 56.2 µM	
COc1ccc(C(=O)NNC(=S)NC(=O)c2cccnc2)cc1	active: 12.6 µM	
COc1cc(NC(=O)c2cc(C(C)C)on2)c(OC)cc1Cl	inconclusive: 1.41 µM [inhibitor, full curve, poor fit]	
O=C(O)CCC(NC(=S)Nc1ccccc1)C(=O)O (stereo unspecified)	inconclusive: 17.8 µM [inhibitor, partial curve, poor fit]	
Cc1ccc(CNCc2ccco2)cc1	active: 22.4 µM	
O=C(OCC(=O)N(CCc1ccccc1)Cc1ccccc1)c1ccccc1O	inconclusive: 89.1 µM [inhibitor, partial curve, poor fit]	
Cc1ccc(C2C(=O)c3ccccc3C2=O)cc1	inconclusive: 70.8 µM [inhibitor, single point]	
CC(NC(=O)c1ccccc1F)C12CC3CC(CC(C3)C1)C2 (stereo unspecified)		inactive: 19.9% [at 2.33 µM]
O=C(CN1CCN(c2ccccc2O)CC1)NC(c1ccccc1)c1ccccc1		inactive: 12.3%
COc1cc(NC(=O)c2c(C)oc3c2C2=NCCN2C=N3)cc(OC)c1OC		inactive: 5%
CCN=C(NS(=O)(=O)c1ccc(Br)cc1)c1ccc(Cl)cc1		inactive: 15.3% [at 102 µM]
Cc1ccccc1-n1c(-c2cccnc2)n[nH]c1=S	active: 5.01 µM	

— PubChem BioAssay AID504332 (National Center for Advancing Translational Sciences (NCATS), 2011)
